Measured values: PubChem BioAssay AID504332 (National Center for Advancing Translational Sciences (NCATS), 2011)
The campaign covered roughly 350,000 compounds. About 31,000 (8.9%) were called active. This list was built around the results that the source calls inconclusive (neither active nor inactive); the mix of calls is not that of the screen. Calls follow the shape of the dose curve; as a rule, active = well fitted inhibition curve with a large enough effect; inconclusive = small, poorly fitted or top-dose-only effect; inactive = no such curve, though single readings can be large or run the other way. Potencies of inconclusive entries are doubtful fits and often do not repeat.

Each compound was assayed against Histone-lysine N-methyltransferase EHMT2 (Homo sapiens) (UniProt Q96KQ7) (assay: qHTS Assay for Inhibitors of Histone Lysine Methyltransferase G9a). Details: G9a H3K9 monomethylation, AlphaScreen, 2 h; activity, negative = inhibition: at 59 µM (top of the series) unless noted.
Procedure, shortened: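 Chemiluminescent proximity detection of H3K9 monomethylation, read after 10 min bead incubation in the dark. Reaction: 20 nM G9a, 500 nM biotin-H3K9 peptide, 20 uM SAM cofactor, 2 h, room temperature, following 15 min enzyme-compound preincubation.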
% is scaled to controls: 0 for no effect and ±100 for the full control effect; potency is read from the fitted curve at half-maximal effect; tags tell the direction and shape of the fitted curve.
Also: nearly all actives have a fitted effect of over 75% in size.

Chain of UniProt Q96KQ7 (Q96KQ7 whole entry, looked up): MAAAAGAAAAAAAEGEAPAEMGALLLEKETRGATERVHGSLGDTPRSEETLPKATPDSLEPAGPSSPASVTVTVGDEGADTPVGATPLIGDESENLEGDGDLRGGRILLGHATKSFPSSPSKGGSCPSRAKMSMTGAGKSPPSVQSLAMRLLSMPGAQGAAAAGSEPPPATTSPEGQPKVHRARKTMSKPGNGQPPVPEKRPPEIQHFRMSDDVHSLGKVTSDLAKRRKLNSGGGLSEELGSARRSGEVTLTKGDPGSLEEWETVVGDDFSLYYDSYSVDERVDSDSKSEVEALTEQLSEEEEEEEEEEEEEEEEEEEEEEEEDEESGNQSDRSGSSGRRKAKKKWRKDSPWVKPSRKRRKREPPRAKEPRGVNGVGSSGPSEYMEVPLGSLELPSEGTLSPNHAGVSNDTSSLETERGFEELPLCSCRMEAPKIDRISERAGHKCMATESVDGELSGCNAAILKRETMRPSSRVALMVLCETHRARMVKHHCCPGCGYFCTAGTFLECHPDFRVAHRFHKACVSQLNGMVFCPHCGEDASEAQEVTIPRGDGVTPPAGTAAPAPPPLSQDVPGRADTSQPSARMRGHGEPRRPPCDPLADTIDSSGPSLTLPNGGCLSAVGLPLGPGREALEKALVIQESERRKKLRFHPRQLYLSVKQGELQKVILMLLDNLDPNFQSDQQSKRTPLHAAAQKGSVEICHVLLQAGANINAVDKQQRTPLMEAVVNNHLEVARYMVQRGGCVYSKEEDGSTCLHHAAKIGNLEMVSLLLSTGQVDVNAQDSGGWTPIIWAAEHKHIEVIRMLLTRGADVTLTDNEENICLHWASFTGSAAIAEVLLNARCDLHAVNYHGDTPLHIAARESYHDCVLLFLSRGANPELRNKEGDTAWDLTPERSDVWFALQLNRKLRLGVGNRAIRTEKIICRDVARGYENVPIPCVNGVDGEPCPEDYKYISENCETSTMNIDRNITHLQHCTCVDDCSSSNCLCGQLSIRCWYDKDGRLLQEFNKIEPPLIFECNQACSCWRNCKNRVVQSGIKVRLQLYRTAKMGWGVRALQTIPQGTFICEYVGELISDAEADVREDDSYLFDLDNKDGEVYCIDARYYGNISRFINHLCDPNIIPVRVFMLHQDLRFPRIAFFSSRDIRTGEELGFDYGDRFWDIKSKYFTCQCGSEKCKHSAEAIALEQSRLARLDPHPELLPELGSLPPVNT

Row | Compound | Potency | activity, negative = inhibition
1 | O=C(Cn1c(/C=C/c2ccccc2)nc2ccccc21)Nc1ccc(F)cc1 | inactive | –
2 | CN(C)Cc1nc(-c2cn(C)c3ccccc23)no1 | inactive | –
3 | CCOc1ccc(NC(=O)CC2C(=O)N(c3ccccc3)C(=O)N2C2CCCC2)cc1 (stereo unspecified) | inconclusive: 3.55 µM [inhibitor, partial curve, poor fit] | –
4 | COc1cccc(OCc2nc(-c3cccc([N+](=O)[O-])c3)no2)c1 | inactive | –
5 | Cc1nnc(NC(=O)CSc2nnc(-c3ccccc3)n2C)s1 | inactive | –
6 | O=C(O)c1cccnc1SC1CC(=O)N(c2ccc(OC(F)F)cc2)C1=O (stereo unspecified) | active: 44.7 µM | –
7 | O=[N+]([O-])C1=CC=C2C(=NC3(CCCCC3)N2O)C1=NCCO | inconclusive: 89.1 µM [inhibitor, single point] | –
8 | CCOC(=O)C/C(C)=N\Nc1nc(-c2ccccc2)cs1 | inconclusive: 50.1 µM [inhibitor, partial curve, poor fit] | –
9 | COc1cc(C)c(C(C)C)cc1S(=O)(=O)n1ccnc1 | inconclusive: 17.8 µM [inhibitor, single point] | –
10 | CCCN1CCC(NC(=O)C2CCN(C(C)=O)CC2)CC1 | inactive | –
11 | Cc1ncc(COP(=O)(O)O)c(CN)c1O | – | inactive: -6.83% [at 12.7 µM]
12 | CCc1ccc(N2CC(C(=O)OCC(=O)c3c(N)n(CC(C)C)c(=O)n(C)c3=O)CC2=O)cc1 (stereo unspecified) | inconclusive: 28.2 µM [inhibitor, partial curve, poor fit] | –
13 | Cc1ccc2c(c1)NC(=O)c1cccc([N+](=O)[O-])c1CO2 | active: 50.1 µM | –
14 | Cc1ccc(NC2Nc3cc(C)nn3S2)c(C)c1 (stereo unspecified) | active: 1.12 µM | –
15 | CCOC(=O)c1c(NC(=O)/C=C/c2ccc(OCC)cc2)sc(C(C)=O)c1C | inactive | –
16 | O=C(O)c1ccc(F)c(S(=O)(=O)Nc2ccccc2Cl)c1 | – | inactive: -20.4% [at 12.7 µM]
17 | COc1cc2nc(NCCc3ccccc3)n3nc(-c4cccnc4)nc3c2cc1OC | inactive | –
18 | Cc1csc(-c2cnn(-c3ccccc3)c2NC(=O)c2cccc(F)c2)n1 | inconclusive: 89.1 µM [inhibitor, single point] | –
19 | CN(C)NC(=O)C(NC(=O)c1ccccc1)C12CC3CC(CC(C3)C1)C2 (stereo unspecified) | inconclusive: 39.8 µM [inhibitor, single point] | –
20 | S=C1CSc2ccccc2N1 | inconclusive: 79.4 µM [inhibitor, single point] | –
21 | NC(=O)CN1CCCN(S(=O)(=O)c2ccc(Br)cc2)CC1 | inconclusive: 2.51 µM [inhibitor, full curve, poor fit] | –
22 | CCC(C)Nc1ccc(NC(C)CC)cc1 (stereo unspecified) | – | inactive: 1.95% [at 0.501 µM]
23 | O=C(CCS(=O)(=O)c1ccc(F)cc1)Nc1nc(-c2ccccn2)cs1 | inconclusive: 0.891 µM [inhibitor, full curve, poor fit] | –

Row | Compound | Potency | activity, negative = inhibition
24 | CCOc1ccc2nc(NC(=O)Cn3cnc4c3c(=O)n(C)c(=O)n4C)sc2c1 | active: 79.4 µM | –
25 | Cc1ccc(S(=O)(=O)Nc2ccc(NC(=O)/C=C/C(=O)O)cc2)cc1 | – | inconclusive: -87.9% [inhibitor]
26 | O=C(CNCc1ccco1)Nc1ccc(Oc2ccccc2)cc1 | active: 14.1 µM | –
27 | C/C(CC(=O)NC1CCCCCC1)=N\NC(=O)c1cnccn1 | inconclusive: 100 µM [inhibitor, single point] | –
28 | COC(=O)C1=C(N)Oc2cc(C)oc(=O)c2C1c1cccnc1 (stereo unspecified) | inconclusive: 89.1 µM [inhibitor, single point] | –
29 | CSc1ccccc1NC(=O)c1ccc(N2CC3CC(C2)c2cccc(=O)n2C3)c(NC(=O)c2cccnc2)c1 (stereo unspecified) | active: 70.8 µM | –
30 | CCCCn1c(NCc2ccc3c(c2)OCO3)nc2ccccc21 | inconclusive: 0.316 µM [inhibitor, partial curve, poor fit] | –
31 | COc1ccc(NC(=O)c2cccn2-c2nnc(N3CCCCC3)s2)c(OC)c1 | inactive | –
32 | COc1ccc(/C=C/C(=O)Oc2cc(C)[nH]c(=O)c2[N+](=O)[O-])cc1OC | inactive | –
33 | CC(NS(=O)(=O)c1ccc(Br)cc1)C(=O)NCc1ccco1 (stereo unspecified) | inconclusive: 79.4 µM [inhibitor, partial curve, poor fit] | –
34 | Fc1ccc(CNCc2ccccc2C(F)(F)F)cc1 | inconclusive: 89.1 µM [inhibitor, single point] | –
35 | COc1cccc(NC(=S)N(CCc2c(C)[nH]c3ccccc23)Cc2cccs2)c1 | inconclusive: 79.4 µM [inhibitor, single point] | –
36 | CS(=O)(=O)Nc1ccc(-c2nc3ccccc3s2)cc1 | inconclusive: 35.5 µM [inhibitor, partial curve, poor fit] | –
37 | Cc1cc(S(=O)(=O)N2CCCC(C)C2)ccc1-n1cnnn1 (stereo unspecified) | inconclusive: 79.4 µM [inhibitor, single point] | –
38 | CCc1ccc(-c2cc(C)no2)cc1S(=O)(=O)N1CCOc2ccccc21 | inactive | –
39 | CCOC(=O)NC(=O)/C(N=Nc1ccc(C(F)(F)F)cc1)=C(\C)O | inconclusive: 44.7 µM [inhibitor, partial curve] | –
40 | Cc1ccc(C(=O)O)cc1S(=O)(=O)Nc1ccccc1C(=O)NC1CC1 | inactive | –
41 | Cc1ccc(S(=O)(=O)N(C)c2ccc(OCC(=O)OCC(=O)N(CC#N)c3ccccc3)cc2)cc1 | inconclusive: 79.4 µM [inhibitor, single point] | –
42 | COc1ccccc1NC(=O)c1ccc(-c2nc(COc3ccc(C)cc3)c(C)o2)cc1 | inconclusive: 6.31 µM [inhibitor, single point] | –
43 | COc1ccc(OC(=O)C2CC(=O)N(c3ccc(C)cc3)C2)cc1 (stereo unspecified) | inconclusive: 31.6 µM [inhibitor, partial curve, poor fit] | –
44 | C=CCn1cc(C(=O)NCc2ccc3c(c2)OCO3)c(=O)c2cc(S(=O)(=O)N(CC)CC)ccc21 | inconclusive: 79.4 µM [inhibitor, partial curve, poor fit] | –
45 | COc1ccc(Cl)cc1NC(=O)C[n+]1ccccc1 | – | inconclusive: -66% [inhibitor] [at 102 µM]
46 | O=c1c2ccccc2nc(-c2cccs2)n1-c1ccc2ccccc2c1 | inconclusive: 35.5 µM [inhibitor, partial curve, poor fit] | –
